Test results: the RNAGym collection of RNA variant scans (doi:10.1093/nar/gkz1192)
The source gives no read counts; variants with many changes may rest on few reads.

B1: CPEB3 Ribozyme (parent)
chain: UAACAGGGGGCCACAGCAGAAGCGUUCACGUCGCAGCCCCUGUCAGAUUCUGGUGAAUCUGCGAAUUCUGCUGUAUAUCUC

Variants of: B1
Assay: self-cleavage, relative activity (ratio to wild type); higher = more cleavage; in vitro, sequencing
How it was run: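 Relative activity was defined as the cleaved/total read fraction for a variant divided by the same fraction for the unmutated ribozyme. CPEB3 self-cleaving ribozyme libraries were made by rounds of error-prone PCR, barcoded, and transcribed in vitro with T7 RNA polymerase for 5 hours at 37°C, and cleavage ran through transcription plus a 15 min DNase I step before EDTA. Illumina sequencing of template-switched reverse transcripts gave the reads, and DNA sequencing mapped the barcodes. Averages come from three batches, using variants with at least 5 reads.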

| Variant | self-cleavage |
| --- | --- |
| UAACAGGGGGCCUCAGCAGAAGCGUUCACGUCGCAGCCCCUGUCAGACUCUGGUGAAUCUGCGAAUUCUGCUGUAUACCAC [A13U U48C U78C U80A] | 0.47 |
| UAACAGGGGGCCUCAGCAGAAGCGUUCACGUCGCAGCCCCUGUCAGAGUCUGGUGAAUCUGCGAAUUCUGCUGUAAAUCUC [A13U U48G U76A] | 0.24 |
| UAACAGGGGGCCUCAGCAGAAGCGUUCACGUCGCAGCCCCUGUCAGAUACUGGCGAAUCAGCGAAUUCCGCUGUAUAUCUC [A13U U49A U54C U60A U69C] | 0.1 |
| UAACAGGGGGCCUCAGCAGAAGCGUUCACGUCGCAGCCCCUGUCAGAUUCGCGUGUAUCUGCGAAUUCAGCUGUAUAUCUC [A13U U51G G52C A56U U69A] | 0.33 |
| UAACAGGGGGCCUCAGCAGAAGCGUUCACGUCGCAGCCCCUGUCAGAUUCUGGAGAAUCUGCGAAUUCUGUCGUAUAUCUC [A13U U54A C71U U72C] | 0.31 |
| UAACAGGGGGCCUCAGCAGAAGCGUUCACGUCGCAGCCCCUGUCAGAUUCUGGAGAAUCUGCGAAUUCUGCAGUAUAUCUC [A13U U54A U72A] | 0.81 |
| UAACAGGGGGCCUCAGCAGAAGCGUUCACGUCGCAGCCCCUGUCAGAUUCUGGCGAAUCUGCGGAUUCUGCCGUAUUUCUC [A13U U54C A64G U72C A77U] | 0.88 |
| UAACAGGGGGCCUCAGCAGAAGCGUUCACGUCGCAGCCCCUGUCAGAUUCUGGCGAAACUGCGAAUUCUGCUGUAUAUCUC [A13U U54C U58A] | 0.24 |
| UAACAGGGGGCCUCAGCAGAAGCGUUCACGUCGCAGCCCCUGUCAGAUUCUGGUGAAUCAGCGAUUCCUGCUGUAUAUCUC [A13U U60A A65U U67C] | 0.29 |
| UAACAGGGGGCCUCAGCAGAAGCGUUCACGUCGCAGCCCCUGUCAGAUUCUGGUGAAUCAGCGAAUUCAGCUGCUUAUCUC [A13U U60A U69A U74C A75U] | 0.26 |
| UAACAGGGGGCCUCAGCAGAAGCGUUCACGUCGCAGCCCCUGUCAGAUUCUGGUGAAUCUGCGAACUCAGCUGUAUGACUC [A13U U66C U69A A77G U78A] | 0.3 |
| UAACAGGGGGCCUCAGCAGAAGCGUUCACGUCGCAGCCCCUGUCAGAUUCUGGUGAAUCUGCGAAUUCUGCCGUAUACCUC [A13U U72C U78C] | 1.33 |
| UAACAGGGGGCCAACGCAGAAGCGUUCACGUCGCAGCCCCUGUCGGAUUCCGGUGAAUCUGCGAAUUCUGCUGUAUAUCUC [C14A A15C A45G U51C] | 0.42 |
| UAACAGGGGGCCAAGGCAGAAGCGUACACGUCGCAGCCCCUGUCAGAUUCUGGUGAAUCUGCGGAUUCUGCUGUAUAUCUC [C14A A15G U26A A64G] | 0.55 |
| UAACAGGGGGCCAAUGCAGAAGCGCUCACGUCGCUGCCCCUGUCAGAUUCUGGAGAAUCUGCGAAUUCUGCUGUAUAUCUC [C14A A15U U25C A35U U54A] | 0.05 |
| UAACAGGGGGCCAAAGCGGAAGCGUUCACGUCGCGGCCCCUGUCAGAUUCUGGUGAAUCUGCGAAUUCUGCUGUAUAUCUC [C14A A18G A35G] | 0.87 |
| UAACAGGGGGCCAAAGCAGGAGCGUUCACGUAGCAGCCCCUGGCAGAUUCUGGUGAAUCUGCGAAUUCUGCUGUAUAUCUC [C14A A20G C32A U43G] | 0.05 |

| Variant | self-cleavage |
| --- | --- |
| UAACAGGGGGCCAAAGCAGAAGCGUUCACGUCGCUGCCCCUGUCAGAUACUGGUGAGUCUGCGAAUUCUGCUGUAUAUCUC [C14A A35U U49A A57G] | 0.43 |
| UAACAGGGGGCCAAAGCAGAAGCGUUCACGUCGCAGCCCCUGUCGGAUUCUGGUGAAUCAGCGAAUUCUGCAGUAUAUCUC [C14A A45G U60A U72A] | 0.47 |
| UAACAGGGGGCCAAAGCAGAAGCGUUCACGUCGCAGCCCCUGUCUGAUUCUGGUGAAUCUGCGAGUUCUGCUGUAUAUCUC [C14A A45U A65G] | 0.12 |
| UAACAGGGGGCCAAAGCAGAAGCGUUCACGUCGCAGCCCCUGUCAGAUUCUGGUGGAUCUGCGAAUCCUGCUGUAUAUCUC [C14A A56G U67C] | 0.26 |
| UAACAGGGGGCCAAAGCAGAAGCGUUCACGUCGCAGCCCCUGUCAGAUUCUGGUGAGUCUGCGAAUACUGCUGUAUAACUC [C14A A57G U67A U78A] | 0.08 |
| UAACAGGGGGCCAAAGCAGAAGUGUACACGUCGCAGCCCCUGUCUGAUUCUGGUGAAUCUGCGAAUUCUGCUGUAUACCUC [C14A C23U U26A A45U U78C] | 0.14 |
| UAACAGGGGGCCAAAGCACAAGCGUUCACGUCGCAGCCCCUGUCAGAUUCUGGUGAAUCUGCGAGUUCUGCUGUAUAUCUC [C14A G19C A65G] | 0.13 |
| UAACAGGGGGCCAAAGCAGAAGCGUUCACGUCACAGCCCCUGUCAGAUUCUGGUGAAUAUGCGAAUUCCGCUGUAUAUCUC [C14A G33A C59A U69C] | 0.11 |
| UAACAGGGGGCCAAAGCAGAAGCGUUCACGUCGCAGCCCCUGUCAGAUUCUGGUUAAUCUGCGAAUCCUGCUGUAUAUCUC [C14A G55U U67C] | 0.09 |
| UAACAGGGGGCCAAAGCAGAAGCGUGCACGUUGCAGCCCCUGUCAGAUCCUGGUGAAUCUGCGAAUUCUGCUGUAUAUCUC [C14A U26G C32U U49C] | 0.04 |
| UAACAGGGGGCCAAAGCAGAAGCGUUCACGACGCAGCCCCUGUCAGAUCCUGGUGAAUCUGCGAAUUCUGCUGUAUAUCUC [C14A U31A U49C] | 0.08 |
| UAACAGGGGGCCAAAGCAGAAGCGUUCACGCCGCAGCCCCUGUCAGAUUCUGGUGAAUCUGCGGAUUCUGCUGUAUAUCUC [C14A U31C A64G] | 0.33 |
| UAACAGGGGGCCAAAGCAGAAGCGUUCACGUCGCAGCCCCAGUCAGAUUCUGGUGAGUCUGCGAAUUCUGCUGUAUAUCUC [C14A U41A A57G] | 0.11 |
| UAACAGGGGGCCAAAGCAGAAGCGUUCACGUCGCAGCCCCCGCCAGAUUCUGGUGAAUCUGCGAAUCCUGCUGUAUAUCUC [C14A U41C U43C U67C] | 0.06 |
| UAACAGGGGGCCAAAGCAGAAGCGUUCACGUCGCAGCCCCUGCCAGAUUCUGGUGUAUAUGCGAAUUCUGCUGUAUAUCUC [C14A U43C A56U C59A] | 0.13 |
| UAACAGGGGGCCAAAGCAGAAGCGUUCACGUCGCAGCCCCUGCCAGAUUCUGGUGAAUUAGCGAAUUCUGCUGUAUAUCUC [C14A U43C C59U U60A] | 0.23 |
| UAACAGGGGGCCAAAGCAGAAGCGUUCACGUCGCAGCCCCUGCCAGAUUCUGGUGAAUCAGCGAAUUCUGCUGUAUGUCUC [C14A U43C U60A A77G] | 0.19 |
